Experimental data published in the RNAGym collection of RNA variant scans (doi:10.7554/elife.90254).
Read counts are not given, so values of variants with three or more changes are uncertain.

B1: LINE1-full (parent)
chain: UACGUAGGUGGUUUUCCCCUGAUAGUGCUAAGGGGGCCUGGAAGUUUGGACUGGGCAGAGCUCAACACAGCGUGGCAAAGUGGCUGUGGCUAGACUGCCUCUCUGGAUUCCUCGUCACUCAGCAGGGCAUCUCUGAGAGAAAUGCC

Variants of: B1
Assay: self-cleavage, relative activity (ratio to wild type); higher = more cleavage; in vitro, sequencing; the parent is a self-cleaving ribozyme

Variant | self-cleavage
U85A A124G U132A | 0.05
A2G U15C G40A A59G U100G U132C | 0
A77G U87A U115C | 0.11
U26G A42U C66U | 0.13
A59G A78U U119C | 0.18
G49A U73A A77U | 0.71
G10U G35A U119C | 0.26
U12C U23C U47C A57G | 0
U15C A69C A124G | 0.08
U15C U23A A42U U115C | 0.84
G4U U20C U26A G35C U73A A124G | 0.72
C38U U62C C116U A140G | 0.04
U14C A42U A141G | 1.01
U14C C16U U39C | 1.69
U29C C63U U85A | 0.09
A77C A79G U96C U130C | 0.88
C37A U119C A124G A129G U143A | 0.62
A43U U100C U143C | 1.38
U15C U81C A129U | 1.18
A24G A42G A136G | 1.92
A43G U52A A67G U134C | 0
G8A U15C C113A A140G | 1.22
U87A U108C A121G | 0.11
A42G C51A U52C U108C C113U | 1.61

Variant | self-cleavage
U100C U130C A140G A142G | 0.71
U47C A92G U108C | 0.21
U9G U45C U102C A136U | 1.91
A22G U96A A117U C118U | 0.08
U9A A43G U62A A92U A121U | 0
A65G U73A U81C G83A C128U | 0.08
U130C A138G A142C | 1.84
U20A A43C U102C A141U | 1.2
U1C A2G U62A | 0.18
U15A A31G C123U A141G | 0.55
C28G U73A A138G | 1.85
U9C A42G U85C | 0.6
G82A U96A A138C | 0.1
A77U A78G A142G U143C | 2.14
A31U A64U G114A | 0.32
A22G U100C A138G | 1.43
U12G U13A A50G A141G | 0.68
U13A U15C A50G U73C A77G | 0
U13C C61U A107G G137A | 0.04
U62C U115C A138G | 0
C61G A64U U96C U134C | 0.03
U20C U39C A92G G106A A136G | 0.07
U1A A64G U102C | 0
U20C A43G A78G U104C A121G C123U U132A A136U | 1.53

Variant | self-cleavage
A57G U108C U109A | 1.02
U15C U96A U108C | 0.09
U9G A42G U119C | 0.86
U1C A78G U119A | 0.42
A6U U12C U15A A67G C84A U104C A117G U130A U143A | 0
U9A A69U G89C | 0.02
U5A U12G A136G | 0.92
A6G U12A A65G G80A A92G A117G | 0
U39C A57G A77C A79U | 0
A69G A94U C113U A140G G144A | 0.1
A42G A59G A78G | 0
U15C U39G A57U A78G A79G | 0
C19U A77G U102C A129G | 0.61
U1G G36C G114A | 1.08
U45C U46C G89A | 0.07
U46C A65G U96A | 0.14
G33U A57U A78G A138G | 0.08
A67G G70A A94G | 0.06
A43G U45C C113A | 1.07
U47A A65G U112A A121U | 0.03
G25A A50G U143C | 0.75
C71U U91C A94G A124G | 0
U1C U5A G40A U62A A117G A129U A140G U143A G144A | 0
G75C U100A A142G | 0.31

Variant | self-cleavage
U1A C18A A65G U100C | 0
U87A U112C A140G | 0
U26C A57U U73A | 0.17
A22U U39A A79G U96C A124G | 0
U13C A65U C84U U87C | 0.1
G34A U109A A140U | 1.36
U9C U13C A22G A107G U119A | 2.3
U45C A67G A79U | 0.83
U73A A92U A140G | 0.36
U13C A43U U47A | 0.93
U23C U115C U132C U134C | 1.62
G7A A24G A31G | 1.49
U62C A64U U109C | 0.08
A6G U45C C120A | 1.63
U13C U45C G127A | 1.43
U13C U52C A141G | 0.99
U13A U14C A43U C113A A117U | 0.57
U26C U29C A65U A78G | 0.23
A30C A78U A141G | 2.88
U12C U14C U87A A142G | 0.21
U1A C116A U130G | 0.79
U20A A64U U109C | 0.13
U1C U26C A43G U143C | 1.61
U13C U20G A78G | 1.23

Variant | self-cleavage
U39C G53U U91A A92G | 0.11
U13C A24C A121U | 1.57
U29C G72C U87A U119C | 0.16
U100A G105A U115C | 1.54
U104C U108C A124U U143C | 2.63
A59C U62C A141G | 0
U12G A92G U100A A129G | 0.32
A6U U15C A65U U87A A117G | 0.33
G25U A43G U108C | 1.67
U14C U119A A141G | 1
U12G A42G U47A A57C U109A | 0
U14C A69C U81A A129U A136U | 0
U23C A94C A107U U109C A142G | 0
U1C G10U A22G A129G | 0.92
C37U A43G G114U U115C | 1.2
A24G A121U U132A | 2.3
U47A A65G A77G A140G | 0.04
C51U A78G A94G A138G | 0.3
U13G A59C U119C | 1.61
A77U U96G A138G | 0.08
A43G A69G A77G G86A | 0.03
G25U A43G A65U A117G | 0.17
U12C U39C U96A U109A | 0.1
G32A U91C G127A A141U | 0.27

Variant | self-cleavage
U81C U115C U132C | 1.97
U13C U20G U47A A50G A67U U85C | 0.28
U39C U52A A117C | 1.23
G97A G106A A140G | 0.38
A22C U52C U96A | 0.15
U1C U9A A42G U45G | 0.63
U13C A64C A79U U85C U87A G125A G127U U134A | 0.04
U47C U109A A140G | 1.11
U20C G55A A64G U102A | 0.05
U39A A50G A117C | 1.19
U5A U104C A117G | 0
U1C A24U A69U | 0.03
A22G A43G U73A | 1.82
U14C G72A A77G U100C | 2.95
U20G U52A A64U U85C U87A | 0.11
U96A U102C A136U | 0.07
U9A A30G A31U | 1.5
A65G G72A U102C U112A | 0
U39C U47A G54C A77U U115C | 0.69
A78G C84G A107U U115A | 0.16
A24G U47A U87G | 0.14
U14C U52A A121G | 1.01
C51U A67G U132A A136U G137A A138U | 0.89
U9C G35A A42U A136G A141G | 0.22

Variant | self-cleavage
A2G U12C U13C A69U U73C U96A A117G | 1.84
G34A U45A U134C U143A | 1.47
A43G A64G A121G U132C | 0
U9A U52A U112C A140G | 1.25
G35A G105C U115A | 1.33
G4U U12C U15C U62C | 0.37
U20G A42U U47A | 0.6
C3U A30G U52C A140G | 1.38
G53A A77G A121G U130C | 2.55
A2U A59G C128U U130C | 0
U9C U26C C71U A77G C101U | 1.65
A43U U45C U81G | 1.08
G32A U47C U104C U115A | 0.92
A78G A141U A142G | 1.69
U12C U96A A142G U143C | 0.19
U12G U13C U81A | 1.32
U45A A78G C101A U112C U134C | 1.31
U14A A59G C113G A117G U132A | 0
A24G G89A U115G | 0
U14C U15C U26C | 1.39
U26A A77G A78G A138G | 1.31
A2U U12G U20C G32C U62A | 0.6
A24G U39C A107U U115C | 0
